Whole data set: some 33,000 sequences, median “E-score (-0.5 to 0.5)” near -0.053, cut for the highest 2% near 0.37. The list shows a part of the results.
Molecular target: Hap1 (UniProt P0CE41)
Assay: PBM E-score (8-mer binding enrichment) (E-score (-0.5 to 0.5)); higher = stronger / more preferred TF binding; most listed sequences are background and not binding sites
Conditions: protein concentration: 200 nM; construct: GST-DNA-binding domain
Summary of the method: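 Universal all-10-mer Agilent arrays, fresh or stripped once, were converted to double-stranded form by primer extension. GST-tagged yeast transcription factors from PURExpress in vitro transcription/translation, full-length or DNA-binding domain only, were applied at about 100-200 nM and detected with fluorescent anti-GST. After masliner normalisation, the Universal PBM Analysis Suite scored each ungapped eight-base word together with its reverse complement by E-score.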

Sequence of UniProt P0CE41 (P0CE41 whole entry): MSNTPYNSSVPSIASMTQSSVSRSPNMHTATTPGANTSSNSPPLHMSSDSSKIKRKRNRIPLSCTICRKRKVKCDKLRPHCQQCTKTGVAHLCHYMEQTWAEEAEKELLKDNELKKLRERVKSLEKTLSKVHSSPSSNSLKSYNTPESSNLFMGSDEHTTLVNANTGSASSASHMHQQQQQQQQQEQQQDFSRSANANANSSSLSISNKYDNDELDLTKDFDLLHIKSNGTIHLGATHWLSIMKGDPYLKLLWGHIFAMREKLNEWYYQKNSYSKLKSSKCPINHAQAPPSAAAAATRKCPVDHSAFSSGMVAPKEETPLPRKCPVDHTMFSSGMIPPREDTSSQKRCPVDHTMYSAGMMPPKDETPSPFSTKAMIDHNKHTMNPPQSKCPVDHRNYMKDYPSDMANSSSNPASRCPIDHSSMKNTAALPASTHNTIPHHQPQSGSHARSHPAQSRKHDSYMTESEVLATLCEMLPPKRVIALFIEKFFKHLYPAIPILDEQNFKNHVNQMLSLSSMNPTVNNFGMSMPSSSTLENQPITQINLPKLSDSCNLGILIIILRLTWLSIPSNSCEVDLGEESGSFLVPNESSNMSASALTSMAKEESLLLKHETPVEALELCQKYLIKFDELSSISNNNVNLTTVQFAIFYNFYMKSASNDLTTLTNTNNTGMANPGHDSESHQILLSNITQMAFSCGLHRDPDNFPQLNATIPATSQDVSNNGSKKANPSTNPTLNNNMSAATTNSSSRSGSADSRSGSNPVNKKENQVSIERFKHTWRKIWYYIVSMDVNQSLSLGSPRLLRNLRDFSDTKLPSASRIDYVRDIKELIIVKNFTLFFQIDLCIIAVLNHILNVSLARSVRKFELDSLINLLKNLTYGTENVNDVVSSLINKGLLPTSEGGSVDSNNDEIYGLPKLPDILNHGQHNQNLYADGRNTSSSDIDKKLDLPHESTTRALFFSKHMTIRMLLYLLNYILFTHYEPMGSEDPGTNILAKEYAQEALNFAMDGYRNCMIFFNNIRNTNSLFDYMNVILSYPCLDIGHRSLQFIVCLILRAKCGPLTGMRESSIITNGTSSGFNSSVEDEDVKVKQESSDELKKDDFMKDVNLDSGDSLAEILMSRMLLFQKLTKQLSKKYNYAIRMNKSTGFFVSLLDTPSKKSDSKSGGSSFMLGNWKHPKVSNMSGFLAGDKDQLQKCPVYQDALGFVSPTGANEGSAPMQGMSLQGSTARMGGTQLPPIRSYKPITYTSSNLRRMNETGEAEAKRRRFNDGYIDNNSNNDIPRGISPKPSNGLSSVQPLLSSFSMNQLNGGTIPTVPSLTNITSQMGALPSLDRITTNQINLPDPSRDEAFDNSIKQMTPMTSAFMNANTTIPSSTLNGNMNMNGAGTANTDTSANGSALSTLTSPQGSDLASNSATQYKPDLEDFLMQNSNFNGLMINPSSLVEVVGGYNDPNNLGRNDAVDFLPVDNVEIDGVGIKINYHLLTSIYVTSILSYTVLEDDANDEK

Row | Sequence | PBM E-score
1 | CGTGGGCC | 0.157
2 | AGCAAAAT | 0.065
3 | CTGGACGA | -0.158
4 | AAAACGGC | 0.2
5 | CGGAACAA | 0.349
6 | ATATCATG | -0.214
7 | CCTTCTAA | -0.349
8 | CGAATACA | 0.16
9 | ATGTGCAG | -0.198
10 | CCTAGGGC | -0.12
11 | ATTATTAC | -0.0189
12 | CATGAATG | -0.0771
13 | GCTGGCTA | -0.233
14 | CCAGCGGG | 0.148
15 | ATATGTAG | -0.27
16 | AAAACACG | -0.0285
17 | ATGCAGAA | -0.178
18 | AGTTTTCC | 0.237
19 | AGCTTAAC | -0.0285
20 | GCAGTAAA | 0.007
21 | CATACTTC | -0.122
22 | CTTCCTTC | -0.207
23 | AGAAAGAT | -0.138
24 | TGCGGCAA | -0.00354
25 | GTAACCAC | -0.228

Row | Sequence | PBM E-score
26 | AAGGTGTC | 0.0209
27 | ACGGTAGT | -0.00902
28 | AATAGGGG | 0.0799
29 | CGCAGGAG | -0.0823
30 | GCCCACAC | -0.0996
31 | CTATGCTC | -0.243
32 | ATTAGGGA | -0.0117
33 | AAACGCTG | -0.199
34 | CGGTACAC | 0.0857
35 | GACTGATA | -0.0852
36 | AGCTCCGC | 0.306
37 | AACAAGAC | 0.0147
38 | ACTAACGC | -0.0057
39 | CTGATGTC | -0.015
40 | ACTGAACC | 0.0839
41 | AACGGCGA | 0.267
42 | GGGCATCA | -0.0958
43 | CACTGGGA | -0.27
44 | TAGTTCCA | -0.106
45 | AATATCTG | -0.0154
46 | AATGGTGC | -0.0746
47 | AGGGGGGA | -0.173
48 | ATTCTTCA | -0.121
49 | GAAACCGC | 0.195
50 | AATGTTGG | -0.052

Row | Sequence | PBM E-score
51 | ATTTAACG | 0.251
52 | AAGGGCCT | -0.119
53 | CGTAGCCC | 0.0376
54 | ATCGATTA | -0.0432
55 | GCACTACA | -0.183
56 | ACGTATCT | -0.0518
57 | CCAATGCC | 0.171
58 | ACTCCTAG | -0.327
59 | ATGACACC | -0.153
60 | TCGGAACA | 0.349
61 | GGGGCTGA | -0.241
62 | GAGCGTCC | -0.0968
63 | AATGGACG | 0.0767
64 | AGAGTCGC | -0.174
65 | ATCATAAC | -0.13
66 | GGATCTTA | 0.149
67 | CTAGAAGC | 0.028
68 | CCAGTAGA | -0.267
69 | AGCATTCG | 0.0912
70 | ACCTTAGA | -0.0585
71 | AGAAGCTG | -0.149
72 | ACAGATTA | -0.147
73 | AGGATGCC | -0.202
74 | AGTAGAAC | -0.157
75 | CTATTAAA | -0.177

Row | Sequence | PBM E-score
76 | CCTGGCAC | 0.0116
77 | AATTAGTG | -0.0879
78 | GAATCCCA | -0.205
79 | TCGTTCAA | -0.246
80 | CGGAGTCA | 0.313
81 | AGTATAAC | 0.0368
82 | CAGGGCCG | 0.185
83 | ATTGCTGC | 0.0984
84 | CAACCCTC | -0.111
85 | GGTTAACA | 0.0714
86 | CCCGGCTA | 0.344
87 | CAAAAAGC | 0.0709
88 | CGCGCGGC | 0.27
89 | ATCTTAAC | -0.00249
90 | ATTGTCCA | -0.128
91 | AACAATTC | -0.155
92 | AGGTTTAG | -0.116
93 | TATCCCGA | 0.221
94 | CAGGTCTC | -0.243
95 | CCGCCGCC | 0.193
96 | GCAAGCAA | -0.112
97 | AATTGGAG | -0.233
98 | CATGCGAC | -0.239
99 | CAAATTTA | -0.0445
100 | ACTCGTCC | 0.119

Row | Sequence | PBM E-score
101 | GAGCACAA | 0.00705
102 | AACGGTAG | -0.00937
103 | GCACTGGC | -0.216
104 | ATGCTTAC | -0.296
105 | CTTCGAAG | -0.159
106 | GATCGTGC | 0.0569
107 | GAAAAGCA | -0.118
108 | CACCAGAC | -0.173
109 | ACGCAAAA | -0.106
110 | CCCCTACA | -0.218
111 | AGTTTCAT | -0.0777
112 | GCAGCATA | -0.109
113 | TACATTCA | -0.318
114 | CCACCGCA | 0.00756
115 | TACAGACA | -0.154
116 | GGTTTTAC | 0.147
117 | CCTTCCGA | 0.0743
118 | TGACGACA | -0.0107
119 | CCCGCGCA | 0.147
120 | ATCTTGTG | -0.197
121 | AAGGAAGT | 0.113
122 | CATAACCG | 0.133
123 | CCCCGGCC | 0.348
124 | ATCCTCAG | -0.0491
125 | CGCCTCGA | -0.0556

Row | Sequence | PBM E-score
126 | AACAAAGC | -0.0164
127 | AAGCGGTA | 0.038
128 | ACGCGAGG | -0.0101
129 | CCTCTATC | -0.0326
130 | GCTTCACC | -0.12
131 | CTCATCAG | -0.0797
132 | CAGCGTGA | -0.229
133 | AGGACCGA | 0.311
134 | AGGATTTA | 0.227
135 | ATGTTTAG | -0.239
136 | TCTCCCAA | -0.0542
137 | AGTGTCAT | -0.133
138 | AAGATAAA | 0.0315
139 | AGTGTGGA | -0.189
140 | ATTCGACG | -0.116
141 | ATACCCAC | 0.154
142 | TATTCAAA | -0.0863
143 | GACGAAAC | 0.0118
144 | ACATTCCC | 0.0549
145 | ACAGATGT | -0.0842
146 | GCGCGCGA | 0.16
147 | ACTTGGAG | -0.176
148 | AGTCGACT | -0.299
149 | ACTATGGC | -0.131
150 | AGGTTTGC | -0.195

Row | Sequence | PBM E-score
151 | GGTGCGCA | 0.0712
152 | TGGGAGAA | -0.305
153 | ATCAGCCG | 0.259
154 | ACATCCGC | 0.347
155 | ACAGGATG | -0.102
156 | CATCCGAC | 0.344
157 | ACAGGAGA | -0.131
158 | ACTCCCAG | -0.0473
159 | GGGATTAA | 0.331
160 | ATAAGGAA | -0.158
161 | GTCATCTA | -0.171
162 | GACATGCC | 0.0554
163 | AGAAATCT | -0.0414
164 | AGCCCTAC | -0.129
165 | GTGTTGCA | -0.0698
166 | CAATAGCG | 0.0928
167 | CTATTAAC | -0.00444
168 | ACGAACAT | 0.0579
169 | CGCTGTAA | -0.0898
170 | ACACATTG | 0.00442
171 | ATTGACTG | -0.141
172 | TTATACAA | 0.00951
